# Experimental data from PubChem BioAssay AID686978 (National Center for Advancing Translational Sciences (NCATS), 2013).
# Out of some 420,000 compounds screened, about 64,000 (15%) were called active. The inconclusive results got no clear call from the source; some entries with a clear call stand among them for comparison. Calls follow the shape of the dose curve; as a rule, active = well fitted inhibition curve with a large enough effect; inconclusive = small, poorly fitted or top-dose-only effect; inactive = flat fitted curve, though single readings scatter. Potencies of inconclusive entries are left out as doubtful fits.
# Assay: qHTS for Inhibitors of human tyrosyl-DNA phosphodiesterase 1 (TDP1): qHTS in cells in absence of CPT; also: nearly all actives have a fitted effect of over 55% in size
# Details: DT40 Tdp1-/- hTDP1 cells, no CPT, ATP luminescence, 48 h; activity change, negative = growth inhibition: at 46.2 µM (top of the series)
# In short: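 No-CPT arm: Tdp1-/-;hTDP1 DT40 cells (400/well) plus compounds, incubated ≥48 hr at 37 °C. Readout CellTiter-Glo luminescence.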
# % is scaled to controls: 0 for no effect and ±100 for the full control effect; potency is read from the fitted curve at half-maximal effect; tags tell the direction and shape of the fitted curve.
SMILES,Potency,"activity change, negative = growth inhibition"
N#C/C(=C(\O)CCl)c1nnc2n1CCCCC2,"inconclusive [inhibitor, single point]",
COc1cc(OC)cc(C(=O)NNC(=O)CN2C(=O)NC(C)(c3ccc(C)cc3)C2=O)c1 (configuration not stated),inactive,
C/C(=N\NC(=O)C1CC1)c1ccc(OC(F)F)cc1OC(F)F,,inconclusive: -34.1% [inhibitor]
O=C(CN(c1cccc(Br)c1)S(=O)(=O)c1ccccc1)N/N=C/c1cc([N+](=O)[O-])ccc1O,"inconclusive [inhibitor, single point]",
COC(=O)c1ccccc1NC(=O)NCc1ccncc1,inactive,
CCn1c(C)nnc1SCC(=O)NC1CCCC1,inactive,
O=C(OCC(=O)N1CCCCC1)c1cc(NS(=O)(=O)c2ccc(Cl)c([N+](=O)[O-])c2)ccc1O,,inconclusive: -31.4% [inhibitor]
CC(=O)N1CCC(C(=O)N2CCN(S(=O)(=O)c3ccc(F)cc3)CC2)CC1,active: 18.4 µM,
COc1cccc(C(=O)N(Cc2ccco2)c2ccccn2)c1,"inconclusive [inhibitor, partial curve]",
O=C(NCCCN1CCOCC1)NC12CC3CC(CC(C3)C1)C2,inactive,
CCOC(=O)C1CCCN(Cc2nc3ccc([N+](=O)[O-])cc3c(=O)n2-c2ccc(OC)cc2OC)C1 (configuration not stated),active: 23.1 µM,
Cc1cccn2c(=O)c3cc(C(=O)NC4CCS(=O)(=O)C4)n(Cc4ccccc4)c3nc12 (configuration not stated),inactive,
Cc1ccc(C2C(C#N)=C(N)Oc3cc4c(cc32)OCO4)cc1 (configuration not stated),"inconclusive [inhibitor, single point]",
Cc1cccc(C(=O)NC(=S)N(C)C2CCCCC2)c1,"inconclusive [inhibitor, partial curve]",
COc1ccc2[nH]c(C(=O)NCCCN3CCCC3=O)c(C)c2c1,inactive,
COc1ccc(Cn2c(/C=C/c3ccccc3)nc3ccccc32)cc1,inactive,
Cc1c(Nc2nc(-c3cccc([N+](=O)[O-])c3)cs2)c(=O)n(-c2ccccc2)n1C,inactive,
CCCN(CC(=O)Nc1cc(Cl)ccc1Cl)C(=O)CN1C(=O)C2CCCCC2C1=O (configuration not stated),inactive,
CC(C)c1cc(C(=O)N/N=C/c2c[nH]c3ccccc23)n[nH]1,"inconclusive [inhibitor, partial curve, poor fit]",
COc1ccccc1C(=O)Nc1ccc(Cc2ccncc2)cc1,active: 20.6 µM,
CCC[C@@H]1CCCC/C=C\CCCC(=O)OCCN1C(=O)OC(C)(C)C,"inconclusive [inhibitor, single point]",
COc1ccc(NC(=S)NC2CC3CCCC(C2)N3C2CC2)cc1 (configuration not stated),inactive,
CCCN(CC1CC1)C(=O)COC(=O)c1oc2c(F)cccc2c1C,"inconclusive [inhibitor, single point]",
CC(=O)Nc1ccc(/C=N/N2C(=O)NC(C)(c3ccc(OC(F)F)cc3)C2=O)cc1 (configuration not stated),"inconclusive [inhibitor, single point]",

SMILES,Potency,"activity change, negative = growth inhibition"
O=C1CCN(Cc2ccc(-c3ccccc3)cc2)CCN1Cc1ccccn1,"inconclusive [inhibitor, single point]",
C=CCN1C(=O)C(=O)N(Cc2nc3ccccc3s2)C1=O,inactive,
NC(=O)c1ccsc1NC(=O)C1CC1,inactive,
CCCCn1nc(C(=O)N(C)C2CCCCC2)c2ccccc2c1=O,"inconclusive [inhibitor, single point]",
Cc1ccc(C(=O)CN(Cc2ccccc2)C2=NCCS2)cc1,"inconclusive [inhibitor, single point]",
N#CC1=C(N)N(c2ncn[nH]2)C2=C(C(=O)CCC2)C1c1ccccc1 (configuration not stated),inactive,
CCOC(=O)c1cccc(NC(=O)CN2C(=O)C3CC=CCC3C2=O)c1 (configuration not stated),inactive,
CCOc1ccc(CCNc2ccc3nnc(-c4ccccc4)n3n2)cc1OCC,"inconclusive [inhibitor, single point]",
CC1Oc2cc3oc4c(O)c(O)ccc4c(=O)c3c(O)c2C1(C)C (configuration not stated),"inconclusive [inhibitor, single point]",
COC(=O)c1ccccc1NC(=O)c1cc(C)nc2c1c(C)nn2-c1ccc(C)cc1,inactive,
COc1cc2c3c(n(C)c(=O)c2cc1OC)-c1cc2c(cc1C3=O)OCO2,"inconclusive [inhibitor, partial curve, poor fit]",
COc1cccc(OCC(=O)NC2CC(=O)N(c3ccc4c(c3)OCCO4)C2)c1 (configuration not stated),inactive,
COc1cccc(C2SCC(=O)N2c2ccc(Br)cc2)c1OC (configuration not stated),"inconclusive [inhibitor, single point]",
COc1ccc2oc(C(=O)OCC(=O)Nc3cccc(S(=O)(=O)N4CCOCC4)c3)c(C)c2c1,"inconclusive [inhibitor, partial curve]",
O=C(Nc1ccc(S(=O)(=O)Nc2ccccc2)cc1)c1ccc(CN2CCOCC2)cc1,"inconclusive [inhibitor, partial curve]",
O=C(OCCNc1nc(-c2ccccc2)nc2ccccc12)c1ccncc1,inactive,
COc1ccc(OC)c(NC(=O)CSC2=Nc3ccccc3C3=NC(CC(=O)NCc4ccc(F)cc4)C(=O)N23)c1 (configuration not stated),"inconclusive [inhibitor, partial curve]",
COc1ccc(C2CC(=O)c3c([nH]c(C(=O)OC4CCCCCC4)c3C)C2)cc1 (configuration not stated),"inconclusive [inhibitor, partial curve]",
CCOc1ccccc1C(=O)Nn1c(C2CCC2)nc2ccccc2c1=O,active: 23.1 µM,
Cn1c(N)c(C(=O)COC(=O)CCCN2C(=O)c3ccccc3C2=O)c(=O)n(C)c1=O,inactive,
COC(=O)c1ccc(/C=C2/SC(=S)N(CCC(=O)NCCCN3CCOCC3)C2=O)cc1,"inconclusive [inhibitor, single point]",
O=C(Nc1ccccc1O)c1cc(S(=O)(=O)N2CCCC2)ccc1Cl,active: 20.6 µM,
CCOC(=O)c1cn(-c2nc(-c3ccc(Cl)c(Cl)c3)cs2)c2c(F)c(N3CCOCC3)c(F)cc2c1=O,"inconclusive [inhibitor, partial curve, poor fit]",
